Results on 32 sequences are retold here after paper PMC12820563, “FoxP3 forms a head-to-head dimer in vivo and stabilizes its multimerization on adjacent microsatellites”.

The list shows a part of the results.

This test addresses T1, MBP-FoxP1dN (Mus musculus, UniProt P58462 326-579).
T1 sequence: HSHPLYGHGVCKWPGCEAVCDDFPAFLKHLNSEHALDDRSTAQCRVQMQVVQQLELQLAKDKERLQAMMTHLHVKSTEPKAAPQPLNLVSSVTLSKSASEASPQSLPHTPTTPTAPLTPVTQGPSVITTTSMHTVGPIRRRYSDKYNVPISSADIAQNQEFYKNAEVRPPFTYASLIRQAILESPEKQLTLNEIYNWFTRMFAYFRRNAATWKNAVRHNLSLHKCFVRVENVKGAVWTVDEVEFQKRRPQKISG
Kind of test: PD-seq (MBP pull-down with sequencing); 20 mM Tris-HCl pH 7.5, 100 mM NaCl, 1.5 mM MgCl2, 0.4 uM protein, 0.1 uM dsDNA library, 30 min, room temperature, amylose pull-down; high values mean tight binding. The following applies: protein: recombinant; tags: His6-MBP; chain copies: 2; dsDNA, one strand shown. The essentials: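 A fragment of mouse FoxP3 or FoxP1 without its N-terminus, carrying a His6-MBP tag and produced in E. coli, was combined at 0.4 µM with a 0.1 µM degenerate double-stranded DNA library filled in with Klenow. The mixture sat for 30 min at room temperature in Tris pH 7.5 buffer containing NaCl and MgCl2. Protein–DNA complexes were captured on amylose resin, washed three times, and the DNA was freed with proteinase K, barcoded by PCR and sequenced on Illumina. Binding is expressed as reads-per-million enrichment of pull-down over input, with replicates pooled.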
Consider “GATGATTGTTCTCCCAGCTGATGAATTGCGCACTTCGAGTAAACAAATTTTCCTAATCTTTCTGTTCAAGCGCCATCTAC”, for which the binding signal was 1.16 RPM ratio (pull-down/input).
As to “GATGATTGTTCTCCCAGCTGATGAATTACAAGCCTCGAGTAAACAAATTTTCCTAATCTTTCTGTTCAAGCGCCATCTAC”, the binding signal is 1.17 RPM ratio (pull-down/input).
“GATGATTGTTCTCCCAGCTGATGAATTTCGATAGTCGAGTAAACAAATTTTCCTAATCTTTCTGTTCAAGCGCCATCTAC”: the binding signal was 0.833 RPM ratio (pull-down/input).
For “GATGATTGTTCTCCCAGCTGATGAATTAAGCAGATCGAGTAAACAAATTTTCCTAATCTTTCTGTTCAAGCGCCATCTAC”, the binding signal was 0.994 RPM ratio (pull-down/input).
On to “GATGATTGTTCTCCCAGCTGATGAATTAATAAGCTCGAGTAAACAAATTTTCCTAATCTTTCTGTTCAAGCGCCATCTAC”, for which the binding signal is 1.03 RPM ratio (pull-down/input).
Next, “GATGATTGTTCTCCCAGCTGATGAATTTAGGTGCTCGAGTAAACAAATTTTCCTAATCTTTCTGTTCAAGCGCCATCTAC”: 0.878 RPM ratio (pull-down/input); “GATGATTGTTCTCCCAGCTGATGAATTCATCCGCTCGAGTAAACAAATTTTCCTAATCTTTCTGTTCAAGCGCCATCTAC”: 0.781 RPM ratio (pull-down/input).
Take “GATGATTGTTCTCCCAGCTGATGAATTTGCATCGTCGAGTAAACAAATTTTCCTAATCTTTCTGTTCAAGCGCCATCTAC”: the binding signal is 1.28 RPM ratio (pull-down/input).
The result for “GATGATTGTTCTCCCAGCTGATGAATTTTAAACTTCGAGTAAACAAATTTTCCTAATCTTTCTGTTCAAGCGCCATCTAC” reads 0.891 RPM ratio (pull-down/input); that for “GATGATTGTTCTCCCAGCTGATGAATTACGAATATCGAGTAAACAAATTTTCCTAATCTTTCTGTTCAAGCGCCATCTAC”, 1.17 RPM ratio (pull-down/input).
On to “GATGATTGTTCTCCCAGCTGATGAATTCTCTGCGTCGAGTAAACAAATTTTCCTAATCTTTCTGTTCAAGCGCCATCTAC”, for which the binding signal was 0.919 RPM ratio (pull-down/input).
For the sequence “GATGATTGTTCTCCCAGCTGATGAATTTCTCTCTTCGAGTAAACAAATTTTCCTAATCTTTCTGTTCAAGCGCCATCTAC”, the binding signal is 0.876 RPM ratio (pull-down/input).
In the case of “GATGATTGTTCTCCCAGCTGATGAATTTGGCTTTTCGAGTAAACAAATTTTCCTAATCTTTCTGTTCAAGCGCCATCTAC”, the binding signal is 0.955 RPM ratio (pull-down/input).
Take “GATGATTGTTCTCCCAGCTGATGAATTACCACGCTCGAGTAAACAAATTTTCCTAATCTTTCTGTTCAAGCGCCATCTAC”: the binding signal is 1.04 RPM ratio (pull-down/input).
Turning to “GATGATTGTTCTCCCAGCTGATGAATTTCTCATCTCGAGTAAACAAATTTTCCTAATCTTTCTGTTCAAGCGCCATCTAC”, the binding signal was 0.872 RPM ratio (pull-down/input).
For “GATGATTGTTCTCCCAGCTGATGAATTCCGCGTATCGAGTAAACAAATTTTCCTAATCTTTCTGTTCAAGCGCCATCTAC”, the binding signal is 0.845 RPM ratio (pull-down/input).
On to “GATGATTGTTCTCCCAGCTGATGAATTGCTGCGATCGAGTAAACAAATTTTCCTAATCTTTCTGTTCAAGCGCCATCTAC”, for which the binding signal was 1.03 RPM ratio (pull-down/input).
Take “GATGATTGTTCTCCCAGCTGATGAATTGCTTTTTTCGAGTAAACAAATTTTCCTAATCTTTCTGTTCAAGCGCCATCTAC”: the binding signal was 1.45 RPM ratio (pull-down/input).
With “GATGATTGTTCTCCCAGCTGATGAATTCAGAGTGTCGAGTAAACAAATTTTCCTAATCTTTCTGTTCAAGCGCCATCTAC”, the binding signal was 0.854 RPM ratio (pull-down/input).
Next, “GATGATTGTTCTCCCAGCTGATGAATTACGGAAGTCGAGTAAACAAATTTTCCTAATCTTTCTGTTCAAGCGCCATCTAC”: 1.05 RPM ratio (pull-down/input); “GATGATTGTTCTCCCAGCTGATGAATTGATGAGCTCGAGTAAACAAATTTTCCTAATCTTTCTGTTCAAGCGCCATCTAC”: 0.908 RPM ratio (pull-down/input); “GATGATTGTTCTCCCAGCTGATGAATTGGCGACGTCGAGTAAACAAATTTTCCTAATCTTTCTGTTCAAGCGCCATCTAC”: 0.882 RPM ratio (pull-down/input).
Next, “GATGATTGTTCTCCCAGCTGATGAATTAATCCGATCGAGTAAACAAATTTTCCTAATCTTTCTGTTCAAGCGCCATCTAC”: 0.828 RPM ratio (pull-down/input).
Consider “GATGATTGTTCTCCCAGCTGATGAATTAAGGCGCTCGAGTAAACAAATTTTCCTAATCTTTCTGTTCAAGCGCCATCTAC”, for which the binding signal was 0.87 RPM ratio (pull-down/input).
Turning to “GATGATTGTTCTCCCAGCTGATGAATTATGGTTGTCGAGTAAACAAATTTTCCTAATCTTTCTGTTCAAGCGCCATCTAC”, the binding signal is 1.26 RPM ratio (pull-down/input).
For “GATGATTGTTCTCCCAGCTGATGAATTGCATCGTTCGAGTAAACAAATTTTCCTAATCTTTCTGTTCAAGCGCCATCTAC”, the binding signal was 1.42 RPM ratio (pull-down/input).
For “GATGATTGTTCTCCCAGCTGATGAATTGAACAAGTCGAGTAAACAAATTTTCCTAATCTTTCTGTTCAAGCGCCATCTAC”, the binding signal is 0.814 RPM ratio (pull-down/input).
Take “GATGATTGTTCTCCCAGCTGATGAATTCTTCCTTTCGAGTAAACAAATTTTCCTAATCTTTCTGTTCAAGCGCCATCTAC”: the binding signal was 0.829 RPM ratio (pull-down/input).
For the sequence “GATGATTGTTCTCCCAGCTGATGAATTAGGATTATCGAGTAAACAAATTTTCCTAATCTTTCTGTTCAAGCGCCATCTAC”, the binding signal is 1.02 RPM ratio (pull-down/input).
On to “GATGATTGTTCTCCCAGCTGATGAATTATTTTTTTCGAGTAAACAAATTTTCCTAATCTTTCTGTTCAAGCGCCATCTAC”, for which the binding signal is 1.5 RPM ratio (pull-down/input).
Take “GATGATTGTTCTCCCAGCTGATGAATTGGAAAACTCGAGTAAACAAATTTTCCTAATCTTTCTGTTCAAGCGCCATCTAC”: the binding signal was 0.867 RPM ratio (pull-down/input).
The result for “GATGATTGTTCTCCCAGCTGATGAATTAGTGTATTCGAGTAAACAAATTTTCCTAATCTTTCTGTTCAAGCGCCATCTAC” reads 1.47 RPM ratio (pull-down/input).
